From PMC6919601, “Identification of Plasmodium dipeptidyl aminopeptidase allosteric inhibitors by high throughput screening” (PLoS ONE, 2019)
Screen size: about 110,000 compounds; about 230 (0.21%) showed an effect of 50% or more. Some of the results follow.

molecular target: DPAP1 (Plasmodium falciparum, UniProt Q8IIJ9); assay: primary screen, percent inhibition; read by cleavage of a fluorogenic dipeptide substrate; higher = more effect of the substance; design: species or system P. falciparum D10 trophozoite lysates; single well
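Also: 30 min substrate incubation versus DMSO and 10 µM JCP410 controls.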

Sequence of DPAP1 (Q8IIJ9 whole entry, looked up): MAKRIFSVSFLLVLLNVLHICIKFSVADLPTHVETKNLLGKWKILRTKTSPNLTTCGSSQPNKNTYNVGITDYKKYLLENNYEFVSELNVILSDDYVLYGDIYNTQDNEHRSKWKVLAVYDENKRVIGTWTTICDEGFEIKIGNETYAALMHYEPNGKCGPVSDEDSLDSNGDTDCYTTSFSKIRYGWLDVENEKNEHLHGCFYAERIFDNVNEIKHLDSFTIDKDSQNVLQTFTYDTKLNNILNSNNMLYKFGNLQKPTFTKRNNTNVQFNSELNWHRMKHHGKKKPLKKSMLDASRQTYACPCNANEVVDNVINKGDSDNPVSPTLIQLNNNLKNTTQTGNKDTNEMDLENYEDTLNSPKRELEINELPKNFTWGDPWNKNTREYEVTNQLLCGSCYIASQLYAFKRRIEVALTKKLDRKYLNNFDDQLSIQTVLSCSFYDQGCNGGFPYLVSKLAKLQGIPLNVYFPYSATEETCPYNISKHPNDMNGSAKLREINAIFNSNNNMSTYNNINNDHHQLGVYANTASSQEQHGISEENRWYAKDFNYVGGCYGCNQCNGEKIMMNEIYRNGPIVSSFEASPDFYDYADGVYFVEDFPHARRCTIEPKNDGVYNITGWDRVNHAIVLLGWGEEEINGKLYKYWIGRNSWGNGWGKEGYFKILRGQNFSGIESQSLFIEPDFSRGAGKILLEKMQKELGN

SMILES | % Inhibition @ 10 uM [%]
Cc1nc(-c2cn[nH]c2)c2cc(C)oc2n1 | -0.424
O=C(Nc1cccc(C(F)(F)F)c1)NC1CCCCC1 | -2.12
COc1cc(Br)c(/C=C2\S/C(=N/c3cccc(C(=O)O)c3)N(C)C2=O)cc1OC | -0.185
CCOC(=O)c1nnn(-c2nonc2N)c1CN1CCOCC1 | 10.6
CC(=O)Nc1nc2cc3sc(NC(C)=O)nc3cc2s1 | 13.5
COc1ccc(C(=O)Nc2nc(C)c(C)s2)cc1OC | -4.59
Cc1ccc(-c2nnc(S)n2-c2ccccc2)cc1 | 10.5
O=C1C(Cl)=C/C(=N/S(=O)(=O)c2cccs2)c2ccccc21 | 6.64
Cc1cccc(OCC(=O)NCc2ccccn2)c1C | 2.86
CCOc1ccc(CNc2nc3ccc(C)cc3n3nnnc23)cc1OC | 0.796
CCc1ccc(C2=CC(c3ccccc3Cl)n3nnnc3N2)cc1 (centres unmarked) | 1.73
COCc1nc2ccccc2n1CCCOc1cc(C)ccc1C(C)C | -4.07
O=C1/C(=C\c2ccccc2)N2CCC1CC2 | 2
O=C1C2C3C=CC(C3)C2C(=O)N1c1cc(Cl)ccc1Cl (centres unmarked) | -0.318
CCC(C)NC(=O)CNC(=S)N1CC2CC(C1)c1cccc(=O)n1C2 (centres unmarked) | -2.26
CCOc1ccc(CCNC(=O)CN(C)c2nn3c(=O)cc(C)nc3s2)cc1 | -0.281
CCCSc1ncc(Cl)c(C(=O)Nc2sc3c(c2C(=O)OCC)CCC3)n1 | -2.21
NC(=O)C1(N2CCCCC2)CCN(S(=O)(=O)c2ccc(Br)cc2)CC1 | 0.569
Cc1[nH]nc(N2C(=O)c3c(Cl)c(Cl)c(Cl)c(Cl)c3C2=O)c1Br | 1.3
CCNC(=O)c1c(NC(=O)c2nc(S(C)(=O)=O)ncc2Cl)sc2c1CCCC2 | 2.19
Cc1ccc2c(CNCc3ccccc3C)c(C(=O)O)n(Cc3ccccc3C)c2c1 | 4.96
COc1cccc(-c2nc(-c3cc4ccccc4nc3O)no2)c1 | 4.96
COc1ccc(C)cc1NC(=O)COc1ccccc1 | -4.02
N#Cc1c(-c2ccccc2)cc(C(F)F)nc1S | 76.3
CC1CCCC(NC(=O)c2cc(S(=O)(=O)N3CCCCC3)c[nH]2)C1C (centres unmarked) | -2.86
O=c1cccc2n1C[C@H]1C[C@@H]2CN(Cc2ccc(Cl)cc2Cl)C1 | -3.63

SMILES | % Inhibition @ 10 uM [%]
CCCCOc1ccc(C(=O)N(Cc2ccc(Cl)cc2)C2CCS(=O)(=O)C2)cc1 (centres unmarked) | 2.43
Cc1ccc(NC(=O)c2cccnc2Cl)c(Br)c1 | 0.0504
CC(C)CC(NC(=O)C1CCC(C)CC1)C(=O)NC1CCN(Cc2ccccc2)CC1 (centres unmarked) | -1.73
CCOc1cc2c(cc1/C=C1/SC(=O)N(C(C)C)C1=O)OCO2 | -3.41
CCOC(=O)C1=CN(C)C=C(C(=O)OCC)C1c1cc(Br)ccc1OC | 3.45
C=CCO/C(O)=C1/C(C)=Nc2ncnn2C1c1ccc(CC)cc1 (centres unmarked) | 0.0842
Cc1ccc(C)c(N(CC(=O)Nc2ccc(Br)cc2)S(C)(=O)=O)c1 | 3.83
CCOC(=O)N1CCN(Cc2c(C)n(C)n(-c3ccccc3)c2=O)CC1 | -1.21
CCOCCCNC(=O)Cn1ncc2c3ccccc3n(Cc3c(C)cc(C)cc3C)c2c1=O | -5.19
CC(=O)c1cc2c(cc1N)OCCO2 | 2.51
Cc1cc(-c2ccc(S(=O)(=O)NCCc3ccccc3)cc2)on1 | -1.83
COc1cc(CNC(C)(C)CO)ccc1OCc1ccc(Cl)cc1 | -1.96
Cc1[nH]c2ccccc2c1-c1csc(-c2cccnc2)n1 | -2.64
CC(C(=O)O)N1C(=O)c2cccc3cccc(c23)C1=O (centres unmarked) | -1.37
COc1ccc(C2CC(C(F)(F)F)n3ncc(C(=O)NCCc4ccccc4)c3N2)cc1OC (centres unmarked) | -3.78
CCOc1cc(C2c3c(oc4ccc(F)cc4c3=O)C(=O)N2Cc2ccccc2Cl)ccc1O (centres unmarked) | -3.13
CC1CCc2c(sc(NC(=O)c3cccc(F)c3F)c2C(N)=O)C1 (centres unmarked) | 3.44
Clc1cccc(NCc2ccncc2)c1 | 1.26
CCCCNC(=O)C1Cc2ccccc2CN1S(=O)(=O)c1cccs1 (centres unmarked) | 3.26
O=C(c1ccco1)N1CCN(c2c(O)nc3ccc(Cl)cc3c2-c2ccccc2)CC1 | -2.14
O=C(Nc1ccc(-c2nc3ccccc3o2)cc1)c1ccc(Oc2ccc([N+](=O)[O-])cc2)cc1 | -2.55
CC(=O)NCCc1nc2ccccc2n1CCCCOc1ccccc1 | -4.29
CN(C(=O)c1ccnn1C)C12CC3CC(CC(C3)C1)C2 | -0.48
Cc1ccc(-n2nc(C)c(NS(=O)(=O)c3ccccc3)c2C)cc1C | 5.5
CCOc1cccc2cc(-c3csc(NC4CCCCC4)n3)c(=O)oc12 | 2.4
COc1ccc(CCNC(=O)c2cc3cc4ccc(C)cc4nc3s2)cc1OC | 2.02

SMILES | % Inhibition @ 10 uM [%]
CC(=O)c1c(C)n(S(=O)(=O)c2ccccc2)c2ccc(NS(=O)(=O)c3ccccc3)cc12 | 5.26
Cc1cc(Br)ccc1NC(=O)COc1ccccc1Cl | -7.9
COc1ccc(-c2nonc2NC(=O)c2ccc(C(C)(C)C)cc2)cc1OC | 6.92
CN(C)C(=O)Cc1c[nH]c2ccccc12 | -2.26
CC1(C)Cc2c(C#N)c(O)nc(-c3ccco3)c2CO1 | 3.39
CCOc1cc(-c2nn3c(CC)nnc3s2)cc(OCC)c1OCC | -1.07
CCC1CCc2c(sc(NC(=O)CCCC(=O)O)c2C(N)=O)C1 (centres unmarked) | -0.864
CCCCN(C)C1CN2CCC1CC2 (centres unmarked) | -1.82
CCC(C)NC(=O)CSc1nc2cc(OC)c(OC)cc2c2nc(CCn3nc(C)cc3C)nn12 (centres unmarked) | 6.08
O=C1CSC(c2ccccc2)N1CCCN1CCOCC1 (centres unmarked) | -4.16
O=C(NCCc1ccc(Cl)cc1)c1cc2c(s1)CS(=O)(=O)C2 | -15.9
COc1ccc2c(Cl)c(C(=O)Nc3ccc(S(=O)(=O)N4CCCCC4)cc3)sc2c1 | -4.28
O=C(O)CP(=S)(c1ccccc1)c1ccccc1 | 1.84
CC(C)CN(CCNC(=O)Cn1nc(-c2ccccc2)ccc1=O)CC(C)C | -4.83
CC1(C)CC(OC(=O)c2ccccc2)CC(C)(C)N1OC(=O)CCCN1C(=O)c2ccccc2C1=O | -1.24
CCN(CC)CCCCOc1ccccc1Cl | -2.12
CCC(C)NC(=O)CCc1c(C)nc2c(c1C)c(=O)n(C)c(=O)n2C (centres unmarked) | -6.91
O=C(O)C1C2C=CC(C2)C1C(=O)NCCc1cccc(Cl)c1 (centres unmarked) | -3.72
O=c1oc2ccccc2n1Cc1cccc(C(F)(F)F)c1 | -1.06
Cc1c(-c2ccccc2)nc2ccccc2c1C(=O)N1CCCC1 | -2.19
CCOC(=O)Cc1csc(N[C@@H](CC(C)C)C(=O)NCC#N)n1 | 0.173
O=C(COc1ccc(Cl)cc1Cl)Nc1ccc(C(=O)N2CCCCC2)cc1 | -2.58
COc1ccc(N2C(=O)C(Cl)=C(Nc3cc(OC)ccc3OC)C2=O)cc1 | 0.385
COc1ccc(S(=O)(=O)N(CC(=O)N2CCN(c3ccc(F)cc3)CC2)c2ccc(C)cc2)cc1 | 0.755
Cc1ccccc1N1CCN(Cc2coc3c(Cl)cc(Cl)cc3c2=O)CC1 | -7.17
CN(C)c1nc(N(C)C)nc(N(C#N)CCOc2ccccc2)n1 | 0.587

SMILES | % Inhibition @ 10 uM [%]
COc1ccccc1C1C(C(C)=O)=C(C)N=c2s/c(=C\c3cccnc3)c(=O)n21 (centres unmarked) | 2.8
Cc1cc2oc3c(c(=O)c2cc1C)C(c1ccccc1F)N(CCCN1CCOCC1)C3=O (centres unmarked) | -1.11
C=CCc1ccccc1OCC(N)=O | -3.55
O=C(Cc1ccc(Cl)cc1)Nc1ccc(Oc2ccc3c(c2)C(=O)NC3=O)cc1 | 0.145
N=C1/C(=C/c2ccc(OCc3ccc4c(c3)OCO4)cc2)C(=O)N=C2SC=CN12 | 5.44
O=C(COc1ccccc1Cl)Nc1ccc(S(=O)(=O)NC2CCCCC2)cc1 | 3.17
Cc1ccc(CCNCc2c(C(=O)O)n(C)c3ccccc23)cc1 | -5.05
COC(=O)c1[nH]c2c(c1C)C(=O)CC(c1cccc(OC)c1)C2 (centres unmarked) | 2.35
Cc1cc(Br)ccc1OCC(=O)NC(C)c1ccccc1 (centres unmarked) | 6.15
COC(=O)c1c(NC(=O)c2sc3ccccc3c2Cl)sc(C)c1C | 5.22
O=[N+]([O-])c1ccccc1CN1CCN(c2cccc(Cl)c2)CC1 | 1.55
CC(C)=CCCC(C)CN1CCC(C(N)=O)CC1 (centres unmarked) | -1.21
O=C(NCc1ccccn1)c1ccc(NS(=O)(=O)c2cccc(Cl)c2)cc1 | -1.04
NS(=O)(=O)c1cccc2cc(C(=O)O)c(O)cc12 | 1.74
COc1cnn(-c2cccc(C(F)(F)F)c2)c(=O)c1OC | 0.135
Cc1ccc(NC(=O)Nc2cn(C)c(=O)c3ccccc23)nc1 | 4.44
COc1cccc2c3c(c[n+](C)c12)sc1cccc(F)c13 | 11.2
CC1CCN(S(=O)(=O)c2ccc3c(ccn3CCC(=O)NC(C)c3ccccc3)c2)CC1 (centres unmarked) | -1.63
Cc1cc(C)c2nc3c(c(N)c2c1)CCN3C | 3.47
O=c1c(-c2ccc(Cl)cc2)coc2c(CN3CCOCC3)c(O)ccc12 | -4.39
CCCCOc1ccc(-c2cc(C(=O)O)c3ccccc3n2)cc1 | -3.06
C#CCOC(=O)/C(=C/C=C/c1ccccc1)NC(=O)c1ccccc1 | -2.87
CC(CCc1ccccc1)NC(=O)c1cc2sc(Cl)cc2n1C (centres unmarked) | -3.08
